The values below come from article PMC6919601, “Identification of Plasmodium dipeptidyl aminopeptidase allosteric inhibitors by high throughput screening” (PLoS ONE, 2019).

Among all 110,000 compounds or so, about 230 (0.21%) showed an effect of 50% or more. This is one part of the list.
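Further: 30 min substrate incubation versus DMSO and 10 µM JCP410 controls.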

This test deals with DPAP1 (Plasmodium falciparum, UniProt Q8IIJ9). Briefly: primary screen, percent inhibition; read by cleavage of a fluorogenic dipeptide substrate; higher = more effect of the substance. Set-up: species or system P. falciparum D10 trophozoite lysates; single well.
Sequence of DPAP1 (Q8IIJ9 whole entry, looked up): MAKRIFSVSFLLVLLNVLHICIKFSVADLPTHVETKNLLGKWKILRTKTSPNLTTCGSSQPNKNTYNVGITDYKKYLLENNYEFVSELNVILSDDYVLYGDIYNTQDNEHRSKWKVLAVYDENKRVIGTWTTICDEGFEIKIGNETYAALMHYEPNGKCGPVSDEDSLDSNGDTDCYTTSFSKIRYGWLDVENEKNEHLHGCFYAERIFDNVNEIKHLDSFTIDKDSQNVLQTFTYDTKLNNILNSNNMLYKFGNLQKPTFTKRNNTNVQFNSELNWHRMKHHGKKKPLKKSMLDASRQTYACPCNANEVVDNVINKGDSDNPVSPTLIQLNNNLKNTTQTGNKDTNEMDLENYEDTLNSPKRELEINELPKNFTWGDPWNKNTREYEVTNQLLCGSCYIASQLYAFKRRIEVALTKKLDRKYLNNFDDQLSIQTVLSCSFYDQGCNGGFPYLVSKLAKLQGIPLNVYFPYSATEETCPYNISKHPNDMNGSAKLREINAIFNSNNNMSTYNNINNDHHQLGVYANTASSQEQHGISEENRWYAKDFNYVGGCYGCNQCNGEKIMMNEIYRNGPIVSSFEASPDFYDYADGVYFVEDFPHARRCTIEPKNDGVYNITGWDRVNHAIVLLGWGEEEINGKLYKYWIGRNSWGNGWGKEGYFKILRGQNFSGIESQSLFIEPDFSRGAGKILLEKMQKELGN
As to `Cc1ccc2c(c1)-c1onc(C(=O)N3CCN(C)CC3)c1CO2`, the “% Inhibition @ 10 uM” value is 2.2%.
For `CCOc1ccc(S(=O)(=O)Nc2ccc(S(=O)(=O)Nc3ccccc3)cc2)cc1`, the “% Inhibition @ 10 uM” value was 13.3%.
As to `Cc1onc(-c2c(Cl)cccc2Cl)c1C(=O)NCCc1ccc(S(N)(=O)=O)cc1`, the “% Inhibition @ 10 uM” value was -6.87%.
Consider `CC(C)C[C@H](NC(=O)c1cccc(CN)c1)C(=O)NCC#N`, for which the “% Inhibition @ 10 uM” value is given as -3.97%.
In the case of `CCOc1ccc(C2SCC(=O)Nc3c2c(O)nn3C(C)CC)cc1` (stereo not shown), the “% Inhibition @ 10 uM” value is listed as -0.666%.
On to `CCN(CC)CCN1C(=O)C(O)=C(C(=O)c2ccc(Cl)cc2)C1c1cccs1` (stereo not shown), for which the “% Inhibition @ 10 uM” value is listed as -2.73%.
Turning to `CC(C)(C)c1[nH]nc2c1C(c1c(Cl)cccc1Cl)C(C#N)=C(N)O2` (stereo not shown), the “% Inhibition @ 10 uM” value was found to be 4.52%.
For the molecule `CCOC(=O)C1CCCN(c2cc(C)c3cc(OC)ccc3n2)C1` (stereo not shown), the “% Inhibition @ 10 uM” value is -5.16%.
On to `CC(C)CN(CC(C)C)C(=O)c1cc(-c2ccccc2)[nH]n1`, for which the “% Inhibition @ 10 uM” value was found to be 6.73%.
For `CCOC(=O)N1CCC(NC(=O)Cn2ncn3nc(-c4ccco4)cc3c2=O)CC1`, the “% Inhibition @ 10 uM” value is -2.85%.
Take `COc1ccc(C2C(C(=O)c3cc4ccccc4o3)=C(O)C(=O)N2c2nccs2)cc1` (stereo not shown): the “% Inhibition @ 10 uM” value is recorded as 2.1%.
Next, `CCOC(=O)C(=O)C(C#N)c1ccccc1` (stereo not shown): -2.14%; `COc1ccc(C(=O)CCNC(C)C(=O)O)cc1` (stereo not shown): 5.85%; `CCCN1CCN(C(=O)CCn2c(=O)c3cccn3c3cccnc32)CC1`: 3.38%.
Then `COC(=O)c1ccc(/N=C2/S/C(=C\c3cc(OC)c(O)cc3Br)C(=O)N2C)cc1`, with -1.82%; and `COc1nc(N)c2c(c1C#N)N=C1CCCC(O)=C1C2c1ccccc1` (stereo not shown), with 2.65%; and `CCOC(=O)/C(C#N)=C/c1cc(Cl)cc(Cl)c1O`, with 1.87%.
As to `CCN1C(=O)N/C(=C/c2ccc(Sc3ccc(C)cc3)o2)C1=O`, the “% Inhibition @ 10 uM” value is recorded as -1.33%.
Then `CC(C)(C)c1ccc(C2CC(=O)Oc3c2c(=O)oc2ccccc32)cc1` (stereo not shown), with 1.32%; and `Cc1ccccc1NC(=O)c1ccc(N(Cc2ccc(Cl)cc2)S(C)(=O)=O)cc1`, with -6.27%.
`CCC(=O)c1c(C)nn(-c2ccccc2)c1O`: the “% Inhibition @ 10 uM” value is -1.37%.
As to `COc1ccc(Cn2c(SCc3ccc(C(=O)NCc4ccccn4)cc3)nc3cccnc32)cc1`, the “% Inhibition @ 10 uM” value is 5.38%.
Turning to `Cc1ccccc1-c1nn2c(-c3ccncc3)nnc2s1`, the “% Inhibition @ 10 uM” value is -4.02%.
For `O=C1C2C(C(=O)N1c1ccc(Cl)cc1)C1C=CC2C12CC2` (stereo not shown), the “% Inhibition @ 10 uM” value came to 3.45%.
Turning to `CCC1CCCCN1CCCNC(=O)C1c2ccccc2C(=O)N(CCOC)C1c1cccs1` (stereo not shown), the “% Inhibition @ 10 uM” value is -3.27%.
Then `Cc1ccc(C)c(NC(=O)c2ccc(Cl)cc2)c1`, with 2.22%; and `COc1ccc(C2=NN3C(C2)c2cc(Cl)ccc2OC3(C)C)cc1` (stereo not shown), with 50.9%.
On to `CCOC(=O)C1=CN(Cc2ccc(OC)cc2)C=C(C(=O)OCC)C1c1ccc(O)c(OCC)c1`, for which the “% Inhibition @ 10 uM” value is on record as -1.48%.
Turning to `CCc1nnc2sc(-c3ccccc3C)nn12`, the “% Inhibition @ 10 uM” value amounted to 3.88%.
With `CCOc1ccc(NC(=O)c2ccccc2Br)cc1`, the “% Inhibition @ 10 uM” value is recorded as 1.63%.
Next, `O=C(NCCc1ccc(Cl)cc1)C1CCC(CNc2c(N3CCOCC3)c(=O)c2=O)CC1` (stereo not shown): 2.84%; `C=CCN1C(=O)S/C(=C/c2cccn2-c2ccc(C(=O)O)cc2)C1=O`: -4.12%; `COc1ccccc1C1C(C(=O)c2ccc3c(c2)OCCO3)=C(O)C(=O)N1CCN(C)C` (stereo not shown): -6.59%.
As to `COc1ccc(NC(=O)c2cnn3c2NC(c2cccs2)CC3C(F)(F)F)cc1OC` (stereo not shown), the “% Inhibition @ 10 uM” value is on record as 0.512%.
Then `O=C(CCN1CCOCC1)NC12CC3CC(CC(C3)C1)C2`, with -6.12%; and `Cc1noc(/C=C/c2ccco2)c1S(=O)(=O)N1CCC(C(=O)N(C)Cc2ccccc2)CC1`, with -4.96%.
On to `O=C(CSc1nc(O)c2ccccc2n1)N1CCCCC1`, for which the “% Inhibition @ 10 uM” value is reported as -3.02%.
Next, `C[C@@H](C[C@H](NC(=O)c1ccc(-c2ccccc2Cl)cc1)C(=O)NCC#N)c1ccccc1OC(F)(F)F`: -4.82%.
In the case of `Cc1ccc(-c2cc(C(=O)N(C)C3CCCCC3)n[nH]2)cc1C`, the “% Inhibition @ 10 uM” value amounted to 1.59%.
Then `CCc1nc2ccccc2n2c(-c3ccc(OC)cc3)c3c(=O)n(C)c(=O)n(C)c3c12`, with 0.315%; and `C=CCSc1ncnc2c1sc1nc(N3CCOCC3)c3c(c12)CCCC3`, with -3.96%; and `CCOc1cc(CN2CCN(Cc3cc(Br)ccc3OC)CC2)ccc1OC`, with -7.18%.
Take `COc1cccc(N(CC(=O)NC(C)(C)C)S(=O)(=O)c2ccccc2)c1`: the “% Inhibition @ 10 uM” value was -3.25%.
Then `CC(=O)c1cccc(NC(=O)/C(=C/c2cccs2)NC(=O)c2ccc(C)c(C)c2)c1`, with 0.851%.
Then `N#Cc1cc2c(nc1SCC(N)=O)CCCC2`, with 4.47%; and `COc1ccc(NC(=O)c2ccco2)c(NC(=O)CSc2ccc(Cl)cc2)c1`, with -7.25%.
For the molecule `Cc1csc2nc(CNS(=O)(=O)c3ccc4c(c3)OCCO4)cn12`, the “% Inhibition @ 10 uM” value turned out to be 2.57%.
For `Cc1n[nH]c(SCC(=O)Nc2ccnc3ccccc23)n1`, the “% Inhibition @ 10 uM” value is listed as -1.11%.
Regarding `Cc1ccc(S(=O)(=O)c2cc(O)ccc2O)cc1C`, the “% Inhibition @ 10 uM” value is given as -0.0369%.
